Test results reported in the RNAGym collection of RNA variant scans (doi:10.1073/pnas.2313332121).
This sample is rich in variants without activity.

B1: TPR 5TU (parent)
chain: GGAUCUUCUCGAUCUAACAAAAAAGACAAAUCUGCCACAAAGCUUGAGAGCAUCUUCGGAUGCAGAGGCGGCAGCCUUCGGUGGCGCGAUAGCGCCAACGUUCUCAACUAUGACACGCAAAACGCGUGCUCCGUUGAAUGGAGUUUAUCAUG

Variants of: B1
Assay: polymerase ribozyme fitness, log enrichment relative to wild type (log ratio); higher = more active; in vitro selection for triplet polymerase activity
Summary of the method: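 Genotype fitness is the logarithm of its enrichment divided by wild-type enrichment, using inverse-variance-weighted averages of replicates. That logarithm is base 2. Enrichment was measured by Illumina sequencing of input and output libraries from one triplicate in vitro selection round, with frozen incubation at −7 °C, on PCR-built, transcribed mutant libraries of each subunit of a heterodimeric triplet polymerase ribozyme, retaining genotypes with ≥10 input reads and ≥1 read per output.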

Polymerase ribozyme fitness (log ratio), -0.98:
U61A G117A

Polymerase ribozyme fitness (log ratio), -2.9:
U61A C69U A98U

Polymerase ribozyme fitness (log ratio), 0.854:
C63U A150U

Polymerase ribozyme fitness (log ratio), -3.23:
U61A C99G

Polymerase ribozyme fitness (log ratio), -1.01:
U61G G83A

Polymerase ribozyme fitness (log ratio), -3.91:
G62U A106C U146G C149U

Polymerase ribozyme fitness (log ratio), -4.17:
U61G C95G U135C

Polymerase ribozyme fitness (log ratio), -3.57:
U61A G92C

Polymerase ribozyme fitness (log ratio), -2.27:
A64G

Polymerase ribozyme fitness (log ratio), -3.6:
U61A C76A

Polymerase ribozyme fitness (log ratio), -1.93:
G62A C93A
G62A G84A U135A

Polymerase ribozyme fitness (log ratio), -4.13:
U61C G70A

Polymerase ribozyme fitness (log ratio), -1.41:
U61A C95A

Polymerase ribozyme fitness (log ratio), -0.337:
C63G C72U C93U

Polymerase ribozyme fitness (log ratio), -1.28:
U61G G62A C87U

Polymerase ribozyme fitness (log ratio), -0.225:
C63U A73G

Polymerase ribozyme fitness (log ratio), -3.31:
G62U C72U C93U A122G

Polymerase ribozyme fitness (log ratio), 0.138:
G62U C116U

Polymerase ribozyme fitness (log ratio), -0.741:
G62C G141C

Polymerase ribozyme fitness (log ratio), -3.43:
U61G C85A G143C

Polymerase ribozyme fitness (log ratio), -4.18:
U61G G88A

Polymerase ribozyme fitness (log ratio), -1.66:
G62A C103U

Polymerase ribozyme fitness (log ratio), 0.561:
C63U C99U C116A

Polymerase ribozyme fitness (log ratio), ≤ -4.2:
U61A A107G
U61A A107U U127G G128C U148A
U61A C69U G88A C99G G140A
U61A C72U C103A
U61A C75A G128A A137C
U61A C76A A106C C108G U135G G143U
U61A C76G
U61A C76G G124A
U61A C76U C103G G143U
U61A C85A A97G A98G G141C
U61A C85A C96A C105A U151A
U61A C85G C105G
U61A C85G G92A A107U
U61A C85U C93G G133U G143A
U61A C93A
U61A C93G
U61A C95A A110G
U61A C99G U104A U139G
U61A C108A
U61A C108G
U61A G65U C85U
U61A G67C C99A A107U
U61A G67C U77G G117U
U61A G71A A91G G92U G141C
U61A G74C G86C
U61A G83A C85G A107G
U61A G88C A97U
U61A G128A A150C
U61A U77A
U61A U77C
U61A U78G G84U A89G
U61A U102C A138G
U61C A91G
U61C C76A C95U U101C C108G G112U
U61C C85G G136A A142G
U61C C132U
U61C G67A G68C C79U A98G
U61C G71U G83U C87A A107U
U61C G88U
U61G A64C G81U C95A C96U U102C
U61G A64G G81U C85A U102C C132A
U61G A89G G92U C116U U135C
U61G C69G U82G G92A A98U C131G
U61G C72G C79U U82G C85U G141U G152A
U61G C75U U78G G94U C95U C123A A142C
U61G C87A C95G
U61G C87G
U61G C93G
U61G G67C G74A C105G G126A G136A
U61G G70U G81A C87U C131G
U61G G71C U102G C123U A142C
U61G G83C C96A U104G C118A C123U G128A
U61G G92C C95U C105U A106C U109C A138G
U61G G94A C108G
U61G G94C A98C U109C G141A A142C U146C
G62A A64C C85U C95G C105G A121U U134G U139G U151C
G62A A66G G67A G83A C125U
G62A A73G C87U U102A C129A A147C
G62A A89G A91C U101C C132U
G62A A106G U130G C149G
G62A C69G C76G
G62A C69U G80U
G62A C75U U78G C96A U134C A138C
G62A C79A A119G
G62A C79G G83U C103U A107G C116G U148A
G62A C87U G92U A147C U151A
G62A C108A C132A U139G
G62A G68C C76A C87G C105A G141C
G62A G68C U82A C85G C95G U101C U145C
G62A G84A U90C G140C U151G
G62A G128A
G62C A64C G86C C87G G128U U145G
G62C A64U U78G U127G U146G
G62C A137C U148G
G62C C72U C85U C108U
G62C C72U C93U G133A G141U
G62C C79A
G62C C79U G141U
G62C C87U C96U A110C
G62C C108A U135G
G62C G67U A91G U111G A120G C149G
G62C G71C U82A C95U A97U
G62C G74C G83A
G62C U78A A106G U139A U148G
G62U A64C C87G G88A C103G G133A
G62U A73C C95G A113U C116G U145C
G62U A110U
G62U C63U A64G C76G G84U A91C C96G C108G C131G
G62U C63U G68A C95A C103A
G62U C72A U78C A91G G94U
G62U C87A
G62U G68A A147C
G62U U90A
C63A A91G C96U
C63A C79A U90A G143C
C63A C87G
C63A C87U A89G G124A U145C
C63A C125G G133A G141U
C63A G68C C87A G117A U148C
C63A G83A G92A
C63G A66C C87A G124C G140C
C63G A66G G68A
C63G A66U G68C C85U G124C
C63G C108G C129G
C63G G67A A106U C108G G117A
C63G G68U C72G G92A C105U G133U
C63G G83A G86U A120G
C63G U77G G88U A89C A91G C95A
C63U A64C A113C A120C
C63U A64C G128A G141C
C63U A64G G83C
C63U A66G C79G G83U G94U C105G U146G
C63U A66G G67U C75U G94U C99A A110G G143A
C63U C69U C76U C93A A113U G136C
C63U C76U C79G G81A G88U C116U G136C A137U
C63U C79G G94A A110G G143U
C63U C79U A91U
C63U C85U C123U U127A G141U
C63U C87A A121U U135A G136A
C63U C87A C103A G136A
C63U C87U A97U C99U G100A G124C A137U
C63U C87U A107C
C63U G68A G83C A115C
C63U G70C C87G A89G C96A G126C
A64C
A64C C69U G86U G88U A89G C93U U144C
A64C C75G C96G
A64C C76U A98G G100A G128U U134G
A64C C93U
A64C C96A C103A A115C
A64C C149A G152U
A64C G67U G70A C93U
A64C G71A U144G U148G
A64C G88A A138U
A64C U77G G86C U90C G124U C125A
A64C U90C A138U G152A
A64G A66C G70U G84A A89U U146G
A64G A66G
A64G A73G A98U G128U
A64G A73G G88C A89G G92A A115G C118A U148C
A64G A89C U90G C149U
A64G A98U C114A G141C
A64G C76A G86A C108G A113U
